# Test results from the supplement of paper PMC12217912.
# The list shows a part of the results. The full chains were built here from the parent and the listed change. Inactive controls read about 0.05.
# B1: TEV protease; numbered along this chain (parent)
# chain: MGESLFKGPRDYNPISSSICHLTNESDGHTTSLYGIGFGPFIITNKHLFRRNNGTLVVQSLHGVFKVKDTTTLQQHLVDGRDMIIIRMPKDFPPFPQKLKFREPQREERICLVTTNFQTKSMSSMVSDTSCTFPSGDGIFWKHWIQTKDGQCGSPLVSTRDGFIVGIHSASNFTNTNNYFTSVPKNFMELLTNQEAQQWVSGWRLNADSVLWGGHKVFMVKPEEPFQPVKEATQL
# Variants of: B1
# Assay: raw area under fraction-flipped curve 0-4 h after induction (AUC4h, not background-subtracted), DNA-recorder readout of cleavage of the substrate (dimensionless); higher = more cleavage of the substrate by the protease variant
# Details: temperature: 34 °C; time window: 0-4 h after rhamnose induction
# Procedure: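 In vivo DNA recorder in E. coli TOP10(DE3) ΔrhaA at 34 °C. Each TEVp single-site mutant (parent TEVp 0) is paired with a single-site variant of the 7-mer TEVs (canonical ENLYFQ|S). The substrate sits between flexible linkers in a Bxb1-sfGFP-TEVs-SsrA fusion, so cleavage stabilises Bxb1 and speeds flipping of a recombination array, read by NGS. The value is the raw area under the fraction-flipped curve over 0-4 h after rhamnose induction (AUC4h), with ≥20 reads per time point. It is not background-subtracted; inactive controls average about 0.047.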
# 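Note: Bxb1 expression induced with 0.2% (w/v) L-rhamnose at OD600 near 0.5, cultures sampled hourly, flipped fraction per protease–substrate barcode pair counted by paired-end Illumina sequencing.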
Variant,area with substrate ENAYFQS,area with substrate ENEYFQS,area with substrate ENGYFQS,area with substrate ENHYFQS,area with substrate ENKYFQS,area with substrate ENQYFQS,area with substrate ENRYFQS,area with substrate ENTYFQS,area with substrate ENVYFQS,area with substrate ENCYFQS,area with substrate ENFYFQS,area with substrate ENMYFQS,area with substrate ENPYFQS,area with substrate ENSYFQS,area with substrate ENYYFQS,area with substrate ENDYFQS,area with substrate ENNYFQS,area with substrate ENIYFQS,area with substrate ENWYFQS
MGESLFKGPRDYNPISSSICHLTNESDGHTTSLYGIGFGPFIITNKHLFRRNNGTLVVQSLHGVFKVKDTTTLQQHLVDGRDMIIIRMPKDFPPFPQKLKFREPQREERICLVTTNFQTKSMSSMVSDTSCTFPSGDGIFWKHWIQTKDGQCGSPLVSTRDGFIVGIHSASGFTNTNNYFTSVPKNFMELLTNQEAQQWVSGWRLNADSVLWGGHKVFMVKPEEPFQPVKEATQL [N172G],0.0481,0.0759,0.0628,0.0729,0.0573,0.0623,0.0569,0.0696,0.0409,,,,,,,,,,
MGESLFKGPRDYNPISSSICHLTNESDGHTTSLYGIGFGPFIITNKHLFRRNNGTLVVQSLHGVFKVKDTTTLQQHLVDGRDMIIIRMPKDFPPFPQKLKFREPQREERICLVTTNFQTKSMSSMVSDTSCTFPSGDGIFWKHWIQTKDGQCGSPLVSTRDGFIVGIHSASIFTNTNNYFTSVPKNFMELLTNQEAQQWVSGWRLNADSVLWGGHKVFMVKPEEPFQPVKEATQL [N172I],0.0212,,0.0648,0.0623,0.0323,0.0424,,0.0502,0.0584,0.097,0.0612,0.0458,0.0618,0.0906,0.0555,,,,
MGESLFKGPRDYNPISSSICHLTNESDGHTTSLYGIGFGPFIITNKHLFRRNNGTLVVQSLHGVFKVKDTTTLQQHLVDGRDMIIIRMPKDFPPFPQKLKFREPQREERICLVTTNFQTKSMSSMVSDTSCTFPSGDGIFWKHWIQTKDGQCGSPLVSTRDGFIVGIHSASTFTNTNNYFTSVPKNFMELLTNQEAQQWVSGWRLNADSVLWGGHKVFMVKPEEPFQPVKEATQL [N172T],0.0674,0.0457,,,,0.0536,,0.0464,,0.0905,,0.059,,0.0623,,0.0779,0.0544,,
MGESLFKGPRDYNPISSSICHLTNESDGHTTSLYGIGFGPFIITNKHLFRRNNGTLVVQSLHGVFKVKDTTTLQQHLVDGRDMIIIRMPKDFPPFPQKLKFREPQREERICLVTTNFQTKSMSSMVSDTSCTFPSGDGIFWKHWIQTKDGQCGSPLVSTRDGFIVGIHSASNCTNTNNYFTSVPKNFMELLTNQEAQQWVSGWRLNADSVLWGGHKVFMVKPEEPFQPVKEATQL [F173C],0.064,0.067,,0.0678,0.0576,0.0578,,0.0687,0.0815,0.0735,0.0836,,0.069,0.0461,,0.0802,0.0668,0.0875,
MGESLFKGPRDYNPISSSICHLTNESDGHTTSLYGIGFGPFIITNKHLFRRNNGTLVVQSLHGVFKVKDTTTLQQHLVDGRDMIIIRMPKDFPPFPQKLKFREPQREERICLVTTNFQTKSMSSMVSDTSCTFPSGDGIFWKHWIQTKDGQCGSPLVSTRDGFIVGIHSASNNTNTNNYFTSVPKNFMELLTNQEAQQWVSGWRLNADSVLWGGHKVFMVKPEEPFQPVKEATQL [F173N],0.0647,,0.0607,,,0.0671,0.0518,0.0645,,,,,0.0619,0.0472,,0.0421,,,0.0038
MGESLFKGPRDYNPISSSICHLTNESDGHTTSLYGIGFGPFIITNKHLFRRNNGTLVVQSLHGVFKVKDTTTLQQHLVDGRDMIIIRMPKDFPPFPQKLKFREPQREERICLVTTNFQTKSMSSMVSDTSCTFPSGDGIFWKHWIQTKDGQCGSPLVSTRDGFIVGIHSASNFNNTNNYFTSVPKNFMELLTNQEAQQWVSGWRLNADSVLWGGHKVFMVKPEEPFQPVKEATQL [T174N],0.0748,,0.0744,0.0633,,0.0652,,,,0.0773,,,0.0433,,,,0.0571,,
MGESLFKGPRDYNPISSSICHLTNESDGHTTSLYGIGFGPFIITNKHLFRRNNGTLVVQSLHGVFKVKDTTTLQQHLVDGRDMIIIRMPKDFPPFPQKLKFREPQREERICLVTTNFQTKSMSSMVSDTSCTFPSGDGIFWKHWIQTKDGQCGSPLVSTRDGFIVGIHSASNFQNTNNYFTSVPKNFMELLTNQEAQQWVSGWRLNADSVLWGGHKVFMVKPEEPFQPVKEATQL [T174Q],0.0554,0.0702,0.0442,0.0582,,0.0552,0.0443,0.0748,,,,0.0641,0.0728,0.0546,,0.0609,0.0732,,0.0076
MGESLFKGPRDYNPISSSICHLTNESDGHTTSLYGIGFGPFIITNKHLFRRNNGTLVVQSLHGVFKVKDTTTLQQHLVDGRDMIIIRMPKDFPPFPQKLKFREPQREERICLVTTNFQTKSMSSMVSDTSCTFPSGDGIFWKHWIQTKDGQCGSPLVSTRDGFIVGIHSASNFTHTNNYFTSVPKNFMELLTNQEAQQWVSGWRLNADSVLWGGHKVFMVKPEEPFQPVKEATQL [N175H],0.0704,0.066,,0.0754,,,0.0571,0.0628,,,0.0269,,,,,,0.114,,
MGESLFKGPRDYNPISSSICHLTNESDGHTTSLYGIGFGPFIITNKHLFRRNNGTLVVQSLHGVFKVKDTTTLQQHLVDGRDMIIIRMPKDFPPFPQKLKFREPQREERICLVTTNFQTKSMSSMVSDTSCTFPSGDGIFWKHWIQTKDGQCGSPLVSTRDGFIVGIHSASNFTNTDNYFTSVPKNFMELLTNQEAQQWVSGWRLNADSVLWGGHKVFMVKPEEPFQPVKEATQL [N177D],0.0616,0.0737,0.0745,0.0661,,,,0.0715,0.0652,,0.0719,0.0509,0.062,0.0859,,0.0646,0.0622,,0
MGESLFKGPRDYNPISSSICHLTNESDGHTTSLYGIGFGPFIITNKHLFRRNNGTLVVQSLHGVFKVKDTTTLQQHLVDGRDMIIIRMPKDFPPFPQKLKFREPQREERICLVTTNFQTKSMSSMVSDTSCTFPSGDGIFWKHWIQTKDGQCGSPLVSTRDGFIVGIHSASNFTNTNDYFTSVPKNFMELLTNQEAQQWVSGWRLNADSVLWGGHKVFMVKPEEPFQPVKEATQL [N178D],0.0649,,0.0531,0.0603,0.0609,0.0709,,,0.0483,,0.0609,,0.067,,,,0.0661,,0.0617
MGESLFKGPRDYNPISSSICHLTNESDGHTTSLYGIGFGPFIITNKHLFRRNNGTLVVQSLHGVFKVKDTTTLQQHLVDGRDMIIIRMPKDFPPFPQKLKFREPQREERICLVTTNFQTKSMSSMVSDTSCTFPSGDGIFWKHWIQTKDGQCGSPLVSTRDGFIVGIHSASNFTNTNHYFTSVPKNFMELLTNQEAQQWVSGWRLNADSVLWGGHKVFMVKPEEPFQPVKEATQL [N178H],0.0702,0.0735,,,,0.0709,,0.0581,0.0883,0.0393,0.0555,,,,,,,,
MGESLFKGPRDYNPISSSICHLTNESDGHTTSLYGIGFGPFIITNKHLFRRNNGTLVVQSLHGVFKVKDTTTLQQHLVDGRDMIIIRMPKDFPPFPQKLKFREPQREERICLVTTNFQTKSMSSMVSDTSCTFPSGDGIFWKHWIQTKDGQCGSPLVSTRDGFIVGIHSASNFTNTNKYFTSVPKNFMELLTNQEAQQWVSGWRLNADSVLWGGHKVFMVKPEEPFQPVKEATQL [N178K],0.0789,,,0.0816,0.0489,0.0634,,,0.0716,0.0806,0.0692,0.0862,0.0522,0.0511,0.0593,,,,0.059
MGESLFKGPRDYNPISSSICHLTNESDGHTTSLYGIGFGPFIITNKHLFRRNNGTLVVQSLHGVFKVKDTTTLQQHLVDGRDMIIIRMPKDFPPFPQKLKFREPQREERICLVTTNFQTKSMSSMVSDTSCTFPSGDGIFWKHWIQTKDGQCGSPLVSTRDGFIVGIHSASNFTNTNNCFTSVPKNFMELLTNQEAQQWVSGWRLNADSVLWGGHKVFMVKPEEPFQPVKEATQL [Y179C],0.0581,,0.071,0.0583,0.0613,0.0687,,0.0393,,0.0568,,,,0.0576,0.0517,0.0606,0.0643,0.0435,0.059
MGESLFKGPRDYNPISSSICHLTNESDGHTTSLYGIGFGPFIITNKHLFRRNNGTLVVQSLHGVFKVKDTTTLQQHLVDGRDMIIIRMPKDFPPFPQKLKFREPQREERICLVTTNFQTKSMSSMVSDTSCTFPSGDGIFWKHWIQTKDGQCGSPLVSTRDGFIVGIHSASNFTNTNNFFTSVPKNFMELLTNQEAQQWVSGWRLNADSVLWGGHKVFMVKPEEPFQPVKEATQL [Y179F],0.0382,0.0612,0.0497,,,0.0555,0.0509,,,0.0382,0.0589,,,0.0602,,0.0331,0.0579,,
MGESLFKGPRDYNPISSSICHLTNESDGHTTSLYGIGFGPFIITNKHLFRRNNGTLVVQSLHGVFKVKDTTTLQQHLVDGRDMIIIRMPKDFPPFPQKLKFREPQREERICLVTTNFQTKSMSSMVSDTSCTFPSGDGIFWKHWIQTKDGQCGSPLVSTRDGFIVGIHSASNFTNTNNYFTIVPKNFMELLTNQEAQQWVSGWRLNADSVLWGGHKVFMVKPEEPFQPVKEATQL [S182I],0.0551,0.0417,0.0726,,0.0505,0.0537,0.057,,0.0555,0.0639,,,0.0567,0.0549,,,0.0656,,
MGESLFKGPRDYNPISSSICHLTNESDGHTTSLYGIGFGPFIITNKHLFRRNNGTLVVQSLHGVFKVKDTTTLQQHLVDGRDMIIIRMPKDFPPFPQKLKFREPQREERICLVTTNFQTKSMSSMVSDTSCTFPSGDGIFWKHWIQTKDGQCGSPLVSTRDGFIVGIHSASNFTNTNNYFTPVPKNFMELLTNQEAQQWVSGWRLNADSVLWGGHKVFMVKPEEPFQPVKEATQL [S182P],0.0699,0.0617,0.072,0.0545,,0.0565,0.0592,0.0736,,,0.0529,,0.0617,0.0606,,0.0465,,,
MGESLFKGPRDYNPISSSICHLTNESDGHTTSLYGIGFGPFIITNKHLFRRNNGTLVVQSLHGVFKVKDTTTLQQHLVDGRDMIIIRMPKDFPPFPQKLKFREPQREERICLVTTNFQTKSMSSMVSDTSCTFPSGDGIFWKHWIQTKDGQCGSPLVSTRDGFIVGIHSASNFTNTNNYFTYVPKNFMELLTNQEAQQWVSGWRLNADSVLWGGHKVFMVKPEEPFQPVKEATQL [S182Y],0.0458,0.0572,,,,0.0602,0.049,0.0435,0.0565,0.0443,,0.0443,,0.0483,,0.0602,,,
MGESLFKGPRDYNPISSSICHLTNESDGHTTSLYGIGFGPFIITNKHLFRRNNGTLVVQSLHGVFKVKDTTTLQQHLVDGRDMIIIRMPKDFPPFPQKLKFREPQREERICLVTTNFQTKSMSSMVSDTSCTFPSGDGIFWKHWIQTKDGQCGSPLVSTRDGFIVGIHSASNFTNTNNYFTSQPKNFMELLTNQEAQQWVSGWRLNADSVLWGGHKVFMVKPEEPFQPVKEATQL [V183Q],0.0637,0.0554,0.0614,0.0464,0.0396,,0.0607,0.0501,0.064,,0.0521,0.047,0.0768,,,0.0543,,0.0626,
MGESLFKGPRDYNPISSSICHLTNESDGHTTSLYGIGFGPFIITNKHLFRRNNGTLVVQSLHGVFKVKDTTTLQQHLVDGRDMIIIRMPKDFPPFPQKLKFREPQREERICLVTTNFQTKSMSSMVSDTSCTFPSGDGIFWKHWIQTKDGQCGSPLVSTRDGFIVGIHSASNFTNTNNYFTSVPKDFMELLTNQEAQQWVSGWRLNADSVLWGGHKVFMVKPEEPFQPVKEATQL [N186D],0.0648,0.0639,0.0612,0.065,0.0743,,,,0.0658,,,0.0577,0.0657,0.0622,0.0624,0.0577,0.05,,0.0436
